Laboratory results: the supplement of paper PMC3334620
In all, about 33,000 sequences were measured (“E-score (-0.5 to 0.5)”: median about -0.021, highest 2% from about 0.32 on). Some of the results follow.

molecular target: T1, Zap1 (UniProt P47043); experiment: PBM E-score (8-mer binding enrichment) (E-score (-0.5 to 0.5)); higher = stronger / more preferred TF binding; most listed sequences are background and not binding sites; conditions: protein concentration: 200 nM; construct: GST-full length
T1 sequence: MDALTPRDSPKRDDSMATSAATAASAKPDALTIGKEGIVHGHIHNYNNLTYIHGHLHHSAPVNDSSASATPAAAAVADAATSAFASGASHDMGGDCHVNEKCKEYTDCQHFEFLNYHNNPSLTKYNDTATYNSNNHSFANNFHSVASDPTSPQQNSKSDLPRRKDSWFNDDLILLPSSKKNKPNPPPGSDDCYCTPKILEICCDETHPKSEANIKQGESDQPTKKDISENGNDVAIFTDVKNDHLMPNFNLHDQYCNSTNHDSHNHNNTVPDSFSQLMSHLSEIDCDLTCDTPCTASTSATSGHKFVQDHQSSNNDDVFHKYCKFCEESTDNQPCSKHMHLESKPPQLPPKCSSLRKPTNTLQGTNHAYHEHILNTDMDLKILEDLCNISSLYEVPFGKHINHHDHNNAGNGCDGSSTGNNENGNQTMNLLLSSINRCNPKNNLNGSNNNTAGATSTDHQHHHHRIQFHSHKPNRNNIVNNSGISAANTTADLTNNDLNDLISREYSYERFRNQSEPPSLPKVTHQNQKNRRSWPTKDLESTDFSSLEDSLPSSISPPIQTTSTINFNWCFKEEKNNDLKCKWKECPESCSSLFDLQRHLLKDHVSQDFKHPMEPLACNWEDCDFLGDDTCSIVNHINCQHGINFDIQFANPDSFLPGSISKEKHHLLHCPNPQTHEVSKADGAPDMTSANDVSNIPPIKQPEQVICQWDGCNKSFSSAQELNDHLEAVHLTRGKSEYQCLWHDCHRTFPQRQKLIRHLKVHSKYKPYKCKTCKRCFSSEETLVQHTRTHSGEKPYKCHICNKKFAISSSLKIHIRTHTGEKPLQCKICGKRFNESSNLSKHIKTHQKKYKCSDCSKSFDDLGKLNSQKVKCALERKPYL
How it was run: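 PURExpress in vitro transcription/translation supplied GST-tagged yeast transcription factors, either full-length or DNA-binding domain. Applied at about 100-200 nM to universal all-10-mer Agilent arrays double-stranded by primer extension, the bound protein was detected with fluorescent anti-GST. E-scores, modified Wilcoxon-Mann-Whitney statistics, were given by the Universal PBM Analysis Suite to ungapped eight-base words pooled with their reverse complements after masliner normalisation.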

| Sequence | PBM E-score |
| --- | --- |
| ATCAGCTC | -0.0782 |
| CGGCCCCC | -0.119 |
| TGTTGAAA | 0.114 |
| CTTTAGGA | -0.00183 |
| CTAACCCA | 0.326 |
| GGGATTTA | -0.00348 |
| AAGCTGTG | -0.125 |
| ATGAGCTA | -0.0368 |
| ACCATCAT | 0.00541 |
| GTTAAATA | 0.0734 |
| CAGCACGA | -0.035 |
| GAACGGCA | -0.167 |
| AGTATGTG | -0.0541 |
| GCCGCTAC | -0.0893 |
| CACGTAAC | 0.102 |
| ATCTGATC | -0.0664 |
| CCGTCGCC | -0.109 |
| AAACAGAC | 0.0939 |
| GGTGAATA | 0.00465 |
| ACGGACTA | -0.0835 |
| CGCTTAAG | -0.206 |
| TAACCGAA | 0.319 |
| GGTAGGAA | 0.0109 |
| ATCAAAAT | 0.0514 |
| AACGTTCA | -0.31 |

| Sequence | PBM E-score |
| --- | --- |
| AGGGCATC | -0.246 |
| CATGCGTA | -0.0136 |
| TGCACGCA | -0.222 |
| CCAAGAAA | 0.114 |
| AATACTAA | 0.121 |
| GGAACCAC | 0.0961 |
| CATCCAGG | -0.133 |
| CACTATAA | 0.0739 |
| ATATACTC | 0.0106 |
| AGCGTATA | 0.0878 |
| AAGCCGGC | -0.182 |
| CCAAGGTC | 0.224 |
| GCGGTCTA | 0.137 |
| ACGCAGCT | -0.0894 |
| AGCAATTG | 0.0286 |
| GTGACCTA | 0.307 |
| CGTGGTAG | 0.0289 |
| AAATCCGA | -0.0415 |
| CGCTGATC | 0.00876 |
| CCTTGTAC | -0.0336 |
| CCCCATAC | 0.148 |
| AGCTCAGG | -0.154 |
| AGTTTTGG | 0.134 |
| CGGTGGAC | -0.0133 |
| CCTGGAGA | 0 |

| Sequence | PBM E-score |
| --- | --- |
| GACATGGA | -0.177 |
| CCTCCTCC | -0.18 |
| GATCGATC | -0.218 |
| CACTCGAG | -0.0649 |
| GATGTGAC | 0.0907 |
| CAACTACA | 0.0874 |
| CCCTGGGA | -0.0527 |
| GCCAGCCA | -0.264 |
| ATGTACCA | 0.109 |
| AGAAACCC | 0.24 |
| AGCAGCCA | -0.259 |
| TAATGTAA | 0.216 |
| GACTTGAA | -0.0697 |
| CCCTGAAG | 0.094 |
| AAAGGGAT | 0.0855 |
| GCTTACAA | 0.0851 |
| AGCCTCGA | 0.0348 |
| CGTTCTAC | -0.0565 |
| CTCTCCTC | -0.25 |
| ACCCGCGG | 0.243 |
| AGAAAGCC | -0.118 |
| CAATGGAG | -0.145 |
| TACCCGCA | 0.364 |
| CAAGAAAA | 0.209 |
| AGTCACCG | -0.126 |

| Sequence | PBM E-score |
| --- | --- |
| CTCGGGCA | -0.108 |
| CGAGCCGA | -0.0651 |
| ATGACTCC | -0.184 |
| CTTAGTGA | -0.0219 |
| AGACCATA | 0.191 |
| AAGGGCCG | -0.00893 |
| GGTACCCA | 0.411 |
| AACATGCC | -0.132 |
| CCGCTACA | -0.0477 |
| ATTACCAA | 0.18 |
| GCAAGTCC | -0.205 |
| AATCGATG | 0.0352 |
| AAAGGTAC | 0.426 |
| TCCCCCGA | -0.312 |
| CATGTCAC | 0.00341 |
| ATACTGAG | -0.0113 |
| ATGCGAAG | -0.242 |
| CCAAAATA | 0.17 |
| AGGTTGCA | 0.299 |
| ATCCGAGG | -0.0507 |
| AAATCGAA | -0.135 |
| GATGGTTA | 0.392 |
| CAGACAAG | -0.0485 |
| CAGGCCAG | -0.129 |
| CCAGGAGG | 0.0376 |

| Sequence | PBM E-score |
| --- | --- |
| CAACAGAA | -0.0272 |
| ATTAGAAG | 0.0178 |
| GGGGGAAA | -0.115 |
| CTAAATGC | -0.118 |
| AAAGGGAA | -0.0936 |
| CAGTATAC | -0.0518 |
| AACGAATG | 0.126 |
| CAAATACG | -0.112 |
| CGGGGTTC | 0.168 |
| CAAAGAGC | -0.115 |
| GGAGCCCC | -0.0703 |
| CTTTTCAA | 0.308 |
| ATTCAGCA | -0.0462 |
| GAGGTTAC | 0.473 |
| TGCCCCAA | -0.107 |
| CGTAGACA | -0.217 |
| CGCCGAGC | -0.25 |
| CCTTGTGC | -0.0645 |
| GAAAATAC | -0.0475 |
| AAATCATG | 0.106 |
| CCGTAAAG | -0.00265 |
| GGCGCCCA | -0.131 |
| CTGGTGGA | -0.225 |
| CCAACGGA | -0.179 |
| AGCGCACT | -0.293 |

| Sequence | PBM E-score |
| --- | --- |
| ACCATCGG | 0.15 |
| AACGATCT | -0.09 |
| ATACAGGA | -0.0579 |
| GCTACTCA | 0.00318 |
| ACCGCGTA | 0.155 |
| CTCAACTC | 0.0636 |
| AGAAACTC | -0.0693 |
| CCGGTCAC | 0.222 |
| AGGGACCA | -0.0766 |
| GCTCCGCC | -0.185 |
| AGTCTACC | -0.00157 |
| ACTGTTAG | 0.00029 |
| GCACGAGC | -0.184 |
| ACGTTCGG | -0.107 |
| AGAAACAT | 0.167 |
| GCATAGAC | -0.117 |
| CACTAACC | 0.151 |
| GACACCCC | 0.0571 |
| AGGACAGC | -0.164 |
| CGAAGTGA | 0.00648 |
| ACAAGTGA | -0.114 |
| GCGTACTA | -0.121 |
| AAGACGAT | -0.118 |
| ATGAGCAA | -0.0417 |
| AGCGCGCC | -0.173 |

| Sequence | PBM E-score |
| --- | --- |
| AGATGCCT | -0.226 |
| CAAATCAC | -0.0481 |
| AGTAAACG | -0.0697 |
| CGATGAAA | 0.0264 |
| CATATGGG | 0.118 |
| GCGCCAAA | -0.0448 |
| GTCGCACA | 0.0353 |
| GCCTCCGC | -0.0269 |
| CCTCGGAC | -0.0866 |
| ACTCGACG | -0.103 |
| CCGATTAA | -0.00812 |
| GCCGTCCC | -0.223 |
| AATACTTC | -0.124 |
| ACATCGTC | -0.125 |
| CATTGTCC | 0.0125 |
| ACCTCTAC | 0.259 |
| GGACCCCA | 0.213 |
| CGGTGCAG | -0.193 |
| GAGAGGTA | 0.243 |
| CAACTTTC | 0.0376 |
| CTCTTTGC | -0.0604 |
| AACAGTTC | -0.00882 |
